# Test results as given in paper PMC4336329 (PLoS ONE, 2015).
# In all, about 310,000 compounds went through this assay and about 2,200 (0.71%) showed an effect of 50% or more. The effect is printed as a negative number. This is one part of the list.
# Biological target: human ether-à-go-go-related gene (hERG) potassium channel (human, UniProt Q12809)
# Assay: primary screen, population patch clamp on CHO cells stably expressing hERG
# human ether-à-go-go-related gene (hERG) potassium channel, sequence (Q12809 whole entry, looked up): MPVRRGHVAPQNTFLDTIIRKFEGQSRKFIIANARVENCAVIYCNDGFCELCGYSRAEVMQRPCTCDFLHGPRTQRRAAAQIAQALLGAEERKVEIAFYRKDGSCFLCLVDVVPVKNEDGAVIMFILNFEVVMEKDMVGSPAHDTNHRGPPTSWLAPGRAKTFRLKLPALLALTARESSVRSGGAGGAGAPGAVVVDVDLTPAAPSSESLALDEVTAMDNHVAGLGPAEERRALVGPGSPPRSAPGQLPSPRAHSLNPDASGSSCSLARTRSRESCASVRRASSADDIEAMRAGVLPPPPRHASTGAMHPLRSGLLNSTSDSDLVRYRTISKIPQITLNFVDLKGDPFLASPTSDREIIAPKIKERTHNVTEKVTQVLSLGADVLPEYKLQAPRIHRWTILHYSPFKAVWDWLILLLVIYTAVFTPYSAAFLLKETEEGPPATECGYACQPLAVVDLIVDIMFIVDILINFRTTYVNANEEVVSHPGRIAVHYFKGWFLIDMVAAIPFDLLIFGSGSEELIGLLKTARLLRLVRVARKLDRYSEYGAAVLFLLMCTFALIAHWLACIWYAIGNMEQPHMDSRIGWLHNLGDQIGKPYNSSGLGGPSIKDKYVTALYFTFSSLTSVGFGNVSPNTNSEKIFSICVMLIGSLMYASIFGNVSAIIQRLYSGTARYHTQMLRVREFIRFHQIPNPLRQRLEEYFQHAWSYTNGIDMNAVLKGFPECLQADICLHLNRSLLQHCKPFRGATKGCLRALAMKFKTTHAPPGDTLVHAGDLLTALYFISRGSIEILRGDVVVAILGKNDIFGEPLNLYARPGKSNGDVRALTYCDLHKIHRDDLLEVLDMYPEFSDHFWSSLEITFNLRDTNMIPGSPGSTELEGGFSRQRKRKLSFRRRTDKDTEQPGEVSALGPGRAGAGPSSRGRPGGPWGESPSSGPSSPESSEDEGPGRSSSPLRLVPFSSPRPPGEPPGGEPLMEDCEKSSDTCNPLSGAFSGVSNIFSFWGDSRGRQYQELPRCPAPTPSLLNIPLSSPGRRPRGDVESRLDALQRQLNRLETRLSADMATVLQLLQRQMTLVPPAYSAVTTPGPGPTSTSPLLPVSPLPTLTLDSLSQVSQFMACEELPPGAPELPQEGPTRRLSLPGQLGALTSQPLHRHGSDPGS
row,Compound,"hERG current change (%, negative = inhibition) at 1uM [%]"
1,CCOC(=O)C1CCN(C(=O)c2ccc3snnc3c2)CC1,7.83
2,O=C(O)c1cc(Br)ccn1,7.31
3,Cc1ccc(NC(=O)CCC(=O)NNC(=O)c2cccs2)c(C)c1,-1.52
4,Cc1cc(=O)n2[nH]cc(C(=O)O)c2n1,-1.64
5,O=C(Nc1ccc(S(=O)(=O)N2C[C@@H]3C[C@@H](C2)c2cccc(=O)n2C3)cc1)c1ccc(F)cc1,4.78
6,Cc1onc(-c2ccccc2)c1C(=O)N1CCN(CCc2ccccc2)CC1,3.48
7,CS(=O)(=O)N(CCC#N)Cc1ccc(/C=C2\C(=O)Nc3ccccc32)o1,5.72
8,Cc1ccc(N=CC2=C(O)CC(c3ccccc3Cl)CC2=O)cc1 (stereo not shown),-4.29
9,CCOC(=O)c1sc2nc(C)nc(NCCc3ccccn3)c2c1C,18.3
10,Cc1[nH]c2ccccc2c1C(=O)C(=O)Nc1ccc2c(c1)OCCO2,8
11,COc1cc(/C=N/n2nnnc2N)ccc1OCC(N)=O,15.2
12,Nc1ncc2c(n1)CC(c1ccco1)CC2=O (stereo not shown),12.2
13,Cn1c(CCNC(=O)c2ccco2)nc2cc(NS(=O)(=O)c3ccccc3)ccc21,-14
14,O=C1CN(C(=O)CNC(=O)c2cccc(Cl)c2)c2ccccc2N1,6.21
15,CCCCC1C(=O)CC[C@H]2[C@@H]1CC(=O)[C@@H]2C/C=C\CCCC(=O)O (stereo partly shown),5.85
16,Cn1c(SCC(=O)NC(C)(C)C)nnc1-c1ccc(C(C)(C)C)cc1,8.15
17,COc1cc(CCC(=O)Oc2ccc(C(C)=O)cc2)cc(OC)c1OC,3.59
18,Cc1ccc(-c2cnn(-c3cccc(C(F)(F)F)c3)c2N)cc1,1.51
19,Brc1ccc(CN2CCN(Cc3c[nH]c4ccccc34)CC2)cc1.O=C(O)C(=O)O,-22
20,O=C(NNS(=O)(=O)c1ccccc1[N+](=O)[O-])c1cccc(Cl)c1,4.42
21,NS(=O)(=O)c1ccc(CNC(=O)CSc2nc3ccc(Cl)cc3[nH]2)cc1,15.3
22,CN1CCc2c(sc(NC(=O)Cc3ccccc3)c2C#N)C1.Cl,1.89
23,CCOc1ccc(OCC)c(-c2c(=O)n(OCc3ccccc3C(=O)OC)c3ccccc3[n+]2[O-])c1,-1.98
24,CN(CC(=O)NC1CCCCCC1)S(=O)(=O)c1ccccc1,-5.08
25,CC1(C)NC(=O)N(CC(=O)OCC(=O)Nc2cccc(S(N)(=O)=O)c2)C1=O,-0.863
26,Cc1csc(NC(=O)CSc2ccc(-c3ccccn3)nn2)n1,-8.19
27,Cc1ccc2c(c1)N(CC(=O)NCCc1ccc(Cl)cc1)C(=O)c1cccnc1O2,-13.2
28,Cc1ccc(C)c(C(=O)C(C)OC(=O)c2cccn2C)c1 (stereo not shown),13.2

row,Compound,"hERG current change (%, negative = inhibition) at 1uM [%]"
1,CC(=O)Nc1ccc(S(=O)(=O)N(CCCN2CCOCC2)Cc2cccs2)cc1.O=C(O)C(=O)O,5.93
2,CCc1ccc(-c2cc(C(=O)Nc3ccc(S(=O)(=O)NC(C)=O)cc3)c3ccccc3n2)cc1,6.96
3,COc1ccc2cc(C(=O)c3ccccc3)c(=O)oc2c1,12.5
4,CC(C)c1csc(CN2CCN(Cc3ccccc3)C(CCO)C2)n1 (stereo not shown),10.1
5,CN(C)CCCCCNCCCNC(=O)/C=N\O,14.7
6,Cc1ccc(S(=O)(=O)N2CCC(C)CC2)cc1C(=O)NCCN1CCOCC1,12.4
7,CC1CN(S(=O)(=O)c2cccc(C(=O)NN3CCN(C)CC3)c2)CC(C)O1.Cl (stereo not shown),3.24
8,CCN(CC)P(c1n(C)cc[n+]1C)N(CC)CC.[I-],5.31
9,O=C(O)c1cccc(N/N=C/c2cc(Br)cc(Br)c2O)c1,11.5
10,Cc1ccc(C(=O)Nc2ccccc2C(=O)O)cc1S(=O)(=O)NC1CCCCC1,-17.7
11,N/C(=N\c1nc(CSc2ccc(Cl)cc2)cc(=O)[nH]1)Nc1ccccc1C(F)(F)F,5.05
12,COc1ccc(N/C(=C(/C(Cl)=C(Cl)Cl)[N+](=O)[O-])n2nnc3ccccc32)cc1,10.8
13,CC(C)OC(=O)c1sc2nc3c(cc2c1N)C(=O)CCC3,5.21
14,Oc1ccc(-c2cnns2)c(O)c1,-4.1
15,CN(CC1CCN(CCc2cccc(C(F)(F)F)c2)CC1)C(=O)c1ccc(F)cc1F,-35.9
16,COc1ccc(S(=O)(=O)N2CCOC2CNC(=O)C(=O)NCc2ccccc2OC)cc1 (stereo not shown),7.72
17,CCOC(=O)c1cccc(NS(=O)(=O)c2c(C)[nH]c(=O)[nH]c2=O)c1,5.47
18,O=C(NCCC1=CCCCC1)C1CCN(c2nc3ccccc3o2)CC1,6.7
19,CN(C(=O)c1ccc(NC(=O)Cc2cccc(NC(=O)C3CCN(C(=O)c4ccccc4)CC3)c2)cc1)C1CCCC1,8.08
20,CCN1C(N(C)CCc2cccs2)=N[C@@H](c2ccccc2)C(C(=O)OC)=C1C,-21.4
21,N#C/C(=C\c1c(N2CCCCCC2)nc2ccccn2c1=O)C(N)=O,11.7
22,CN(c1ccccc1)S(=O)(=O)c1ccc(NC(=O)C2CC2)cc1,8.45
23,Cc1cccc(NC(=O)C(C)N2C(=O)c3ccccc3S2(=O)=O)n1 (stereo not shown),5.26
24,O=S(=O)(CCc1ccccc1)N1CCOCC1,10.9
25,COCCNC(=O)/C(C#N)=C/c1cn(CC(=O)NCc2ccco2)c2ccccc12,2.31
26,COc1cccc(CN2CC(C(=O)NCc3ncc(C)[nH]3)CCC2=O)c1 (stereo not shown),16.9
27,CC(=O)Nc1cccc(NS(=O)(=O)c2cc3c4c(c2)CCN4C(=O)CC3)c1,-5.08
